The whole screen tested about 43,000 compounds, of which about 200 (0.47%) were called active. Roughly 12% stayed inconclusive and do not appear here. Calls follow the shape of the dose curve; as a rule, active = well fitted cell-killing curve with a large enough effect; inconclusive = small, poorly fitted or top-dose-only effect, or effect the other way; inactive = flat fitted curve, though single readings scatter. The list shows a part of the results.
Test: Cell viability qHTS assay in S16 Pmp22-F2sN cells; also: nearly all actives have a fitted effect of over 65% in size
Conditions: S16 Pmp22-F2sN Schwann cells (luciferase reporters placed in the Pmp22 gene) viability, CellTiter-Glo, 24 h; series mostly up to 57.5 µM; activity change, negative = cytotoxicity: at the top concentration
Summary of the method: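 Rat S16 Schwann reporter line, 24 h treatment with library compounds delivered at 23 nL per well. Cell viability by CellTiter-Glo luminescence.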
% is scaled to controls: 0 for no effect and ±100 for the full control effect.

Row | SMILES | activity change, negative = cytotoxicity
1 | CCOc1ccc(CNC(=O)C2CCN(S(=O)(=O)c3cn(C)cn3)CC2)cc1 | inactive: -17.5%
2 | O=C(CN1C(=O)CCn2nc(-c3ccccc3)cc21)NCc1ccc(F)cc1 | inactive: 9.36%
3 | Cn1ncc2c(NCc3ccccc3Cl)nc(NCCO)nc21 | inactive: -0.562%
4 | COc1ccc2c(c1)c1c(c(=O)n(-c3ccccc3)c(=O)n1CC(=O)NCCC1=CCCCC1)n2C | inactive: 1.7%
5 | O=C(Nc1ccc(-n2nncc2-c2ccccc2)cc1)c1cccc(F)c1 | inactive: -3.42%
6 | CC1=C(C(=O)Nc2ccccc2)C(c2ccc(C(=O)O)cc2)n2ncnc2N1 (stereo not given) | inactive: 0.283%
7 | CCOc1ccc(Nc2nc3c(S(=O)(=O)c4cccc(Cl)c4)nnn3c3ccsc23)cc1 | inactive: 4.14%
8 | CCc1ccc(OCC(=O)N(Cc2ccco2)Cc2ccccc2Cl)cc1 | inactive: -1.92%
9 | COc1ccccc1N1CCN(C(=O)c2cn(C)c3ccc(S(=O)(=O)N(C)C4CCCCC4)cc3c2=O)CC1 | inactive: 6.04%
10 | CCOc1ccc(NC(=O)c2cnn(-c3ccc(C)c(C)c3)c2C2CCN(C(=O)OC(C)(C)C)CC2)cc1 | inactive: -2.7%
11 | Cc1ccc(C(=O)NCC(c2ccc3c(c2)OCO3)N2CCN(C)CC2)cc1C (stereo not given) | inactive: 2.29%
12 | Cc1ccc(NC(=O)CCCn2c(=O)c3cccn3c3ccccc32)c(C)c1 | inactive: -19.1%
13 | CCOC(=O)c1cnc2c(ccc3ccccc32)c1Nc1cccc(C(F)(F)F)c1 | inactive: -7.65%
14 | O=c1cc(-c2ccc(F)cc2)nc(SCc2nc(-c3ccccc3Cl)no2)[nH]1 | inactive: 2.58%
15 | CCOc1ccc(NC(=O)C(=O)NCCc2csc3nc(-c4ccccc4F)nn23)cc1 | inactive: -3.35%
16 | COC(=O)c1ccc(Cl)cc1NC(=O)N(C)CCc1c(C)nn(C)c1C | inactive: -5.94%
17 | CCOc1ccc(NC(=O)Cn2cc(C(=O)c3ccc(C)c(C)c3)c(=O)c3cc(OC)c(OC)cc32)cc1 | inactive: 0.531%
18 | COc1cc(NC(=O)C(CC(C)C)NS(=O)(=O)c2ccc3c(c2)oc(=O)n3C)c(C(=O)O)cc1OC (stereo not given) | inactive: 15.4%
19 | CCOC(=O)c1ccc(NC(=O)c2csc3c2CCCCC3)cc1 | inactive: -6%
20 | Cc1cccc(N2CCN(C(=O)c3cc4c(=O)n(C)c5ccccc5c4s3)CC2)c1C | inactive: -3.13%
21 | COc1cc(C(=O)Nc2ccc(NC(=O)c3ccc(Br)cc3)cc2)cc(OC)c1OC | inactive: 8.91%
22 | COc1ccc(CCn2c3c(c(=O)[nH]c2=O)C(NC(=O)c2ccccc2OC)(C(F)(F)F)C(=O)N3)cc1OC (stereo not given) | inactive: 0.179%
23 | CCC1CCCCN1C(=O)CSc1nc2c([nH]c3ccccc32)c(=O)n1-c1cccc(OC)c1 (stereo not given) | inactive: -11.1%
24 | Cc1oc(-c2cccc(Cl)c2)nc1CSc1nc2ncccc2[nH]1 | inactive: -15.5%

Row | SMILES | activity change, negative = cytotoxicity
25 | Cc1nn(-c2nc(-c3ccc(F)cc3)cc(C(F)(F)F)n2)c(C)c1Cl | inactive: -10.4%
26 | CC(=O)N1CCC2(CC1)OC(=O)C(C)=C2C(=O)NCc1ccc(Cl)cc1 | inactive: 6.62%
27 | Cn1ccc2c(OCC(=O)NCc3ccccc3Cl)cccc2c1=O | inactive: 7.19%
28 | CCc1ccc(CNC(=O)c2ccc3nc(C(C)C)oc3c2)cc1 | inactive: 7.14%
29 | CCc1ccc(NC(=O)C(=O)NCC(c2cccnc2)N2CCN(C)CC2)cc1 (stereo not given) | inactive: 0.288%
30 | COc1ccc(OC(C)c2nc3ccccc3[nH]2)cc1 (stereo not given) | inactive: -5.13%
31 | O=C(Cn1ncc2c3ccccc3n(Cc3ccccc3)c2c1=O)Nc1ccccc1C(F)(F)F | inactive: 13.7%
32 | COc1ccc(OC)c(CNC(=O)CCCn2nc(C)c3c(C)n(-c4ccc(C)cc4)nc3c2=O)c1 | inactive: -6.14%
33 | CCn1ccc2cc(S(=O)(=O)N3CCCN(C(=O)Nc4cc(Cl)ccc4C)CC3)ccc21 | inactive: -0.884%
34 | CC(C)c1ccc(NS(=O)(=O)c2ccc3[nH]cc(C(=O)N4CCCC4)c(=O)c3c2)cc1 | inactive: -1.31%
35 | COc1cccc(CNC(=O)Cc2c(C)c3c(cc(C)c4c(C)coc43)oc2=O)c1 | inactive: 4.63%
36 | CCOc1ccc(NC(=O)Nc2ccc3snnc3c2)cc1 | inactive: 2.39%
37 | COc1ccc2c(c1)-c1nc(NC(=O)c3ccc(C)cc3)sc1CC2 | inactive: -26.5%
38 | Cc1cc(C)cc(-n2c(SCC(=O)NCC3CCCO3)nc3c([nH]c4ccccc43)c2=O)c1 (stereo not given) | inactive: 3.9%
39 | CCOc1ccc(-c2cc(NC(=O)c3ccc(C)cc3)c(C(=O)OC)s2)cc1 | inactive: -2.5%
40 | COc1ccc(-c2noc(-c3ccc(NCCc4ccccc4)c([N+](=O)[O-])c3)n2)cc1OC | inactive: 5.16%
41 | CCCC(=O)C1=C(c2ccc(C)c(C)c2)N(C(=O)CCC)n2c(CC)nnc2S1 | inactive: -26.8%
42 | CCOc1ccccc1CNC(=O)c1cnc2sc(N3CCCC3)nn2c1=O | inactive: -2.71%
43 | CCOCCCn1c(SCC(=O)Nc2cccc(OC)c2)nc2ccccc2c1=O | inactive: 0.509%
44 | CCCN1C(=O)c2ccccc2CC1(C)C(=O)NC1CCCCC1 (stereo not given) | inactive: 17.8%
45 | COc1ccccc1NC(=O)C1CCN(S(=O)(=O)c2ccc3c(c2)oc(=O)n3C)CC1 | inactive: 2.3%
46 | Cc1ccc(NC(=O)N2CCN(c3nnc(C)c4c(C)n(-c5ccccc5)nc34)CC2)cc1Cl | inactive: 1.44%
47 | CCN(c1ccc(Cl)cc1)S(=O)(=O)c1nnc(NC(=O)C2CCCCC2)s1 | inactive: 1.79%
48 | Cc1ccc2nc(N(Cc3cccnc3)C(=O)c3ccc4c(c3)OCCO4)sc2c1 | inactive: 2.59%

Row | SMILES | activity change, negative = cytotoxicity
49 | CCOCCc1nn2c(=O)cc(COC(=O)c3cccs3)nc2s1 | inactive: 0.132%
50 | O=C(NCc1ccc2c(c1)OCO2)c1ccc2c(c1)N(Cc1ccc(F)cc1)C(=O)c1ccccc1S2=O (stereo not given) | inactive: -6.29%
51 | CCCCCn1c(=O)[nH]c2cc(C(=O)NCc3ccc(OC)cc3)ccc2c1=O | inactive: -0.36%
52 | CCOC(=O)c1ccc(NC(=O)CCS(=O)(=O)c2ccc3c(c2)oc(=O)n3C)cc1 | inactive: -27.8%
53 | Cc1ccc(Cl)cc1N1CCN(S(=O)(=O)c2ccc3[nH]c4c(c3c2)CCCC4)CC1 | inactive: -20.8%
54 | Cc1cccc(N2CCN(C(=O)C3CCN(S(=O)(=O)c4cn(C)cn4)CC3)CC2)c1C | inactive: 3.27%
55 | COc1ccccc1NC(=O)CN1C(=O)c2cccc3cccc1c23 | inactive: 1.31%
56 | CCCCN(CCCC)CCNC(=O)CN1C(=O)CSc2ccc(S(=O)(=O)N3CCCCC3)cc21 | inactive: 3.4%
57 | Cc1cccc(CN2C(=O)CC(c3ccc(Cl)cc3)c3c(C)nn(-c4nc(C)cc(C)n4)c32)c1 (stereo not given) | inactive: 1.51%
58 | COc1ccccc1N(CC(=O)Nc1ccccc1F)S(C)(=O)=O | inactive: 4.62%
59 | CCOc1ccc(-n2nc3cc(C)c(NC(=O)CC)cc3n2)cc1 | inactive: 24.9%
60 | CCc1ccc(NC(=O)C(CC)n2nnc(C(=O)OC)c2C(=O)OC)cc1 (stereo not given) | inactive: 0.494%
61 | COc1ccc(C2NC(=O)c3c(sc4c3CCN(C)C4)N2)cc1O (stereo not given) | inactive: 21.7%
62 | CCCNc1nc(NCc2ccccc2OC)c2cnn(C)c2n1 | inactive: -7.63%
63 | CCN(CCCNC(=O)c1cc2c(=O)[nH]c3ccc(C)cc3c2s1)c1ccc(C)cc1 | inactive: -1.75%
64 | COc1ccc(C2C(=O)N(C3CCCCC3)CC(=O)N2Cc2ccccc2Cl)cc1OC (stereo not given) | inactive: 11.8%
65 | COc1ccc(-c2nn(CC(=O)Nc3ccccc3F)c3c2cnc2ccc(F)cc23)cc1 | inactive: 2.33%
66 | CCOC(=O)c1cc(OC(=O)c2ccc(Cl)cc2)n(-c2ccccc2)n1 | inactive: 0.477%
67 | Cc1ccc(C)c(N2CCN(CCCNC(=O)Cn3ncc4c([nH]c5ccccc54)c3=O)CC2)c1 | inactive: -5.79%
68 | Cc1ccc(-c2nc(S(=O)(=O)c3ccc(C)cc3)c(N3CCN(c4ccccc4)CC3)o2)cc1 | inactive: -6.57%
69 | COc1ccc(CNC(=O)Cn2ncn3nc(-c4cccs4)cc3c2=O)cc1 | inactive: -6.54%
70 | COc1ccc(N2CCN(S(=O)(=O)CCNC(=O)c3ccc(C(F)(F)F)cc3)CC2)cc1 | inactive: 13.6%
71 | CCc1ccc(-n2nc(C)c3c(C(=O)NCCc4ccc(OC)c(OC)c4)cc(C)nc32)cc1 | inactive: -5.03%
72 | CCc1cccc(C)c1NC(=O)Cn1c(=O)cc(C(F)(F)F)c2c(C)nn(C)c21 | inactive: 0.161%

Row | SMILES | activity change, negative = cytotoxicity
73 | Cc1cccc(N2CCN(c3nc4ccccc4c(=O)n3-c3ccc(Cl)cc3)CC2)c1C | inactive: 13.9%
74 | Cc1ccc(C)c(S(=O)(=O)NCC(c2ccco2)S(=O)(=O)c2ccc(F)cc2)c1 (stereo not given) | inactive: 2.35%
75 | CCC1CCCCN1C(=O)c1nn(-c2ccc(C)cc2)c(=O)c2c1c1ccccc1n2C (stereo not given) | inactive: 5.66%
76 | CCOc1ccc(CCNC(=O)c2cnc3sc(N4CCOCC4)nn3c2=O)cc1 | inactive: 10.6%
77 | O=C(NCc1cccs1)C1CCN(C(=O)N2CCOc3ccccc32)CC1 | inactive: 3.19%
78 | O=C(Nc1c(-c2ccccc2)nc2ccccn12)c1ccc(Br)cc1 | inactive: -21.8%
79 | Cc1noc(C)c1S(=O)(=O)N(CC(=O)NCc1ccccc1Cl)c1ccc(C(C)C)cc1 | inactive: -13%
80 | O=C(Nc1ccc(F)cc1F)c1c2c(nc3ccccc13)C(=O)N(C1CCCCC1)C2 | inactive: -3.1%
81 | O=C(CCn1c(=O)c2cccn2c2ccc(F)cc21)NCCc1ccccc1Cl | inactive: -13.1%
82 | CCCOc1ccc(Nc2nc(SC)ncc2C(=O)OCC)cc1 | inactive: 2.91%
83 | COC(=O)c1ccc(NC(=O)Nc2nnc(N(C)C3CCCCC3)s2)cc1 | inactive: 11.9%
84 | COc1ccccc1NC(=O)Cn1c(=O)n(Cc2ccccc2)c(=O)c2ccccc21 | inactive: -1.43%
85 | COc1ccc(CN2COc3ccc4c(C)cc(=O)oc4c3C2)cc1 | inactive: 0.582%
86 | COc1cccc(NC(=O)c2oc3ccccc3c2NC(=O)C23CC4CC(CC(C4)C2)C3)c1 | inactive: 7.21%
87 | COc1cccc2c1Oc1nc(-c3ccccc3)nc(SCC(=O)N3CCCCC3)c1C2 | inactive: 0.579%
88 | COc1ccc(NC(=O)C(=O)NCCc2csc(-c3ccc(Cl)cc3)n2)cc1 | inactive: 3.94%
89 | Cc1cc(C)cc(-n2c(SCC(=O)Nc3nnc(C)s3)nc3c([nH]c4ccccc43)c2=O)c1 | inactive: 14.3%
90 | COC(=O)c1ccc(NC(=O)Cc2coc3cc(C)ccc23)cc1 | inactive: 7.64%
91 | COc1ccc(-c2nc3nc(C)cc(Nc4ccc(C(C)=O)cc4)n3n2)cc1 | inactive: -6.7%
92 | Cc1coc2c(C)c3oc(=O)c(CC(=O)N4CCCCC4)c(C)c3cc12 | inactive: 8.63%
93 | CCN(C(=O)COc1cc(=O)n(C)c2ccccc12)c1cccc(C(F)(F)F)c1 | inactive: -0.0206%
94 | CCOc1ccc(CCNC(=O)c2ccc(CS(=O)(=O)Cc3ccccc3Cl)o2)cc1OCC | inactive: 5.11%
95 | Cc1ccccc1CN1CCc2nc(Nc3ccc4c(c3)OCCO4)ncc2C1 | inactive: -21.5%

From PubChem BioAssay AID1508642 (National Center for Advancing Translational Sciences (NCATS), 2021)
